Data from the supplement of paper PMC3334620.
In all, about 33,000 sequences were measured (“E-score (-0.5 to 0.5)”: median about -0.053, highest 2% from about 0.37 on). The list shows a part of the results.

Biological target: Hap1 (UniProt P0CE41)
Assay: PBM E-score (8-mer binding enrichment) (E-score (-0.5 to 0.5)); higher = stronger / more preferred TF binding; most listed sequences are background and not binding sites
Details: protein concentration: 200 nM; construct: GST-DNA-binding domain
Description: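 Universal 'all 10-mer' protein binding microarrays (Agilent AMADID 015681) probed with GST-tagged S. cerevisiae TFs (full-length or DBD) made by in vitro transcription/translation (PURExpress), about 100-200 nM. Bound TF was detected with fluorescent anti-GST. Each ungapped 8-mer (which stands for itself and its reverse complement) is scored by the PBM enrichment score (E-score), a modified Wilcoxon-Mann-Whitney statistic from -0.5 to +0.5, computed with the Universal PBM Analysis Suite. Scale: above 0.35 generally sequence-specific binding.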

Chain of UniProt P0CE41 (P0CE41 whole entry): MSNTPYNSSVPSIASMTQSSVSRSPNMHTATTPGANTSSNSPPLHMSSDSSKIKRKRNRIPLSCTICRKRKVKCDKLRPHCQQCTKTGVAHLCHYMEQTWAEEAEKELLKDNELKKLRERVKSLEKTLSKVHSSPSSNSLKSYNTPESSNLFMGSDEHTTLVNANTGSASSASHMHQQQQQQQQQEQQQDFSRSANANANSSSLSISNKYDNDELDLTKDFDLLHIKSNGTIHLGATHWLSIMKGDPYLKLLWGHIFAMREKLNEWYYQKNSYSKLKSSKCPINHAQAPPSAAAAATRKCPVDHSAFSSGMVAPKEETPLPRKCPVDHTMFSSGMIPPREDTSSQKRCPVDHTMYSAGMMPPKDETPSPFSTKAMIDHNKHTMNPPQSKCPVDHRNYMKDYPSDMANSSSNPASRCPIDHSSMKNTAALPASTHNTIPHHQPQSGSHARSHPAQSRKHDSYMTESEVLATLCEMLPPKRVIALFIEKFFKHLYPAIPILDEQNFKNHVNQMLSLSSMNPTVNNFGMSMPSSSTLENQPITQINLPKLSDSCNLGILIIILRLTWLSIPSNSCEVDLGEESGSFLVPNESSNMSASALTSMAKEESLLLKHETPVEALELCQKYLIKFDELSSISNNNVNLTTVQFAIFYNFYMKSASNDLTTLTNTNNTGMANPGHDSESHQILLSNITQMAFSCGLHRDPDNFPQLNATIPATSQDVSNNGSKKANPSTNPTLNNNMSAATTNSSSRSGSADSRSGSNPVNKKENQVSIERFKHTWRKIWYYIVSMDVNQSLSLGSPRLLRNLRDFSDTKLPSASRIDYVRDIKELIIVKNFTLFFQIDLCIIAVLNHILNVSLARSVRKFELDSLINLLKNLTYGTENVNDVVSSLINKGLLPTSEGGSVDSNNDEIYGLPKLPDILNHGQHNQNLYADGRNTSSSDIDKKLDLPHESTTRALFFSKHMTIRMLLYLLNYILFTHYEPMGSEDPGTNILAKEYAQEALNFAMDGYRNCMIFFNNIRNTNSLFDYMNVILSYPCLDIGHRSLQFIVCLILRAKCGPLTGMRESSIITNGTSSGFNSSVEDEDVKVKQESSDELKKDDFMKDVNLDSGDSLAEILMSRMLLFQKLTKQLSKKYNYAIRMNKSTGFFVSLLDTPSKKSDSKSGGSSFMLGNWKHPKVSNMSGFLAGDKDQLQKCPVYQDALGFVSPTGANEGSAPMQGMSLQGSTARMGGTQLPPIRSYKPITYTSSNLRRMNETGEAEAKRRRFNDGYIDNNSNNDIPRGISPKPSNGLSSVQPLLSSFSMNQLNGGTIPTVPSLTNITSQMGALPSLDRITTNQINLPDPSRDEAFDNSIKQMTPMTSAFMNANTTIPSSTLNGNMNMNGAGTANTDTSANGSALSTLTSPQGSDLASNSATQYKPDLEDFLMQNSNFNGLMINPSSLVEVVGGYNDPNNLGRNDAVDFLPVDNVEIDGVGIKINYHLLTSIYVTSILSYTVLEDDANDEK

Sequence	PBM E-score
ATTAGCAG	0.0304
AGTTTCGA	-0.0388
CCATTGGC	-0.0939
AGACCTGG	-0.121
TCATTAGA	-0.126
ATTACTAC	-0.224
TCGCGCCA	0.135
ACCGAACC	0.251
ATGCTAGA	-0.24
GGCGTATA	-0.0502
AAGTTATA	-0.0591
ACGGAGAC	0.285
GCTAGCGA	-0.0832
ACAAAGCG	-0.0571
GATTAACA	-0.101
ATAAGAAA	0.0132
ACTAACCG	0.12
ACCCGAGT	0.229
AACTTTCC	0.1
TACCTACA	-0.246
CTAACTCC	0.403
TTATCGAA	0.255
ATCGTAGA	-0.213
AACGAAAA	0.00098
AACGAGAA	-0.15

Sequence	PBM E-score
CTTACGTA	-0.203
TAGTCGGA	0.309
ATGCTTTC	-0.157
GGTATTTA	0.169
AAAAGAAG	-0.104
ACGGACCG	0.328
GAACTTGA	-0.0295
AGGTGGTG	-0.0593
GATGATCC	0.174
CTATAGAA	-0.135
CTAACCGC	-0.0116
CCGGAGAG	0.354
ACTCGGGC	0.216
ATTTCCCC	0.181
GATGCACA	-0.209
GTTGTCGA	-0.169
ATGATGTA	-0.12
AGCACATA	0.0123
CTAACGTC	0.00466
CACGAACG	-0.00661
CGCTGGAG	0.00312
ATCTACCA	-0.136
ACCGCCTG	-0.105
GAGTGACA	-0.112
GAGGACTA	-0.108

Sequence	PBM E-score
ATGCCTAA	-0.21
GCGGGAAC	0.212
GATGGTGA	-0.0555
CCCACCAC	-0.0164
AACCTCCA	-0.163
GACTGCGA	-0.126
GAACGAGC	-0.018
AGGGTCGC	0.0733
AATAAGCA	-0.204
CCGGGCTC	0.243
ACGCCAAG	-0.289
AACTGGAC	-0.0332
ATACGCAA	-0.142
ACTGGGGA	-0.016
AGTCTTGA	-0.261
AAGAAGCG	-0.149
CGATTCAC	0.113
AGGACACG	0.0655
AATTATCA	-0.101
AAAGAACC	0.106
GCAGCGTA	-0.0937
AAAGGCCT	-0.305
AACTTTCA	-0.106
CTGACCGA	0.258
GCTCTCCA	-0.177

Sequence	PBM E-score
CTAGTTCA	-0.0651
AGGGATAG	-0.116
AGATCGGC	0.267
AGTCACAC	-0.233
TACTGATA	0.0105
AGATGTAG	-0.064
CTTTTTGC	-0.0126
ATTTAGAC	-0.0358
GCGCGTAA	0.155
TAGATAGA	-0.111
TCATTCGA	-0.161
CCAACGCC	0.0877
ATTGCAAC	0.0746
AAACCGGG	0.234
CAAGCTGG	-0.242
GCTGCTGA	-0.113
AGGTGCGA	-0.0418
AGAAAGAA	-0.0768
AACCCCAG	-0.0536
AACTGCGA	0.185
ATTTTTCC	0.124
CTGGAAGA	-0.0745
AACCCCCG	0.262
ATGCGAGA	-0.168
ACGACGCC	-0.0839

Sequence	PBM E-score
CCGCTGCC	-0.0154
CAAATACC	0.103
CAGTCCGC	0.0912
CACCGTGG	-0.121
AGCTAAAG	-0.12
GGCTGCGA	-0.128
CATCAAAG	-0.2
AAACCTTA	0.0158
AAACTATA	-0.0142
ACTACGTG	-0.161
CAGATCAC	-0.191
CGTACGAC	-0.0847
GGAGTCGA	-0.0486
CGTAATTA	0.0116
CGATGGAG	0.185
AGGCAAGG	-0.298
CGGCAGGC	-0.012
ACATATAC	-0.123
ACTGGGAT	-0.0267
ATGGACGG	0.19
CGGCGGGC	0.254
GGTAGTTA	0.0824
ACGCTGGG	-0.131
GTGATTCA	-0.322
ATGGTGGC	-0.219

Sequence	PBM E-score
GGAACGGA	0.303
AAAAGTGA	-0.076
ATATTTAC	0.125
GAGTCATA	-0.0413
GCACGCAA	-0.0136
CGCCTAGC	-0.132
CGCCTACA	-0.222
AGTAACAA	-0.129
CTACAGAG	-0.223
GGAATATA	0.226
AGATGAGC	-0.182
TATGTAGA	-0.166
CACGAGGA	-0.0134
CCGAGCTA	0.31
CATGCAAG	-0.0911
GAGATCTC	0.156
ATCCTGTA	-0.19
GGCATTAC	0.268
TAGAGACA	-0.246
AGCAAATG	-0.233
ATCGTGAG	-0.00799
CGCGTCAA	-0.0722
ATACTAAA	-0.00575
CGAATCTC	0.234
AGCCAAAC	0.0592

Sequence	PBM E-score
CTGCGTCC	-0.104
CAATCGGG	0.205
GGCTTTAA	0.314
TAGGGGAA	-0.295
ACAGTCCC	0.00129
CCGAATCA	0.229
GCATGCAC	-0.222
GCCATTAA	-0.00272
GCGTTATA	0.0076
GACTCCCA	-0.0794
TACGTGCA	-0.113
CACATCAA	-0.0134
GGGTCGTA	0.0749
GACACGAA	-0.0202
GAATCAAC	0.0943
AGCTCTAG	-0.0648
CATGGGTC	-0.168
CCTTGAAG	-0.173
ACCCCATA	0.0968
AGAAGGAT	-0.263
AGGTTAGA	-0.0741
AGTTCACA	-0.0871
TCAATCAA	0.0139
CGTGCCTA	-0.163
CTCAGGCC	-0.0471

Sequence	PBM E-score
ATCCCCCC	-0.00218
ACCGCAAC	0.259
CGTATATC	0.0289
CGCCAGGC	0.0936
CTTTTCCA	-0.118
AGTACTCG	0.0239
ACTCCGCT	0.21
AAGTGAAG	-0.125
AAACGGCT	-0.00631
ATGGAGTG	-0.186
ACTATCAT	0.0979
AAAACACC	0.155
ACGACAAA	0.0147
CTTCAGCC	-0.174
ACGTAGCG	0.0111
TACCACAA	-0.0071
AGCAGGCA	-0.173
AGTCGATC	0.0221
TCCTAACA	-0.286
AATTGGTA	0.0798
CCATTAGC	-0.105
CGATTCAG	-0.0955
GCTGTCTA	-0.114
CAAGGTCG	-0.159
AAGAGTCT	-0.303

Sequence	PBM E-score
CGAGTTAA	0.172
CACTGAAG	0.0169
CGGGCCTC	0.192
ATGGGCCC	0.0947
CAACGGAC	0.345
CTTCGTGC	-0.172
AGGGCGTC	0.129
TCCCGACA	0.127
AGACTTCA	-0.262
AATAAGAA	0.0502
AAAGAATA	-0.138
GTCCTCTA	-0.278
TAGCCTCA	-0.109
CTCAATCC	-0.0245
GGCGACTA	-0.0531
ACGCCAGC	-0.112
ATTTTACA	-0.19
CTCCCCTA	0.146
CGCTTGCA	-0.0441
CGCCGCAG	0.22
CCCGTAAA	0.206
AGGCTCCA	-0.148
CATATTAG	-0.0685
GACCGGTC	0.325
GTATGTAA	-0.0486

Sequence	PBM E-score
GACCTTCC	0.078
CACAATTA	-0.182
ACACGGAC	0.279
ATTCCTGG	-0.077
GCGGCCAA	0.0252
ATTACTAG	-0.0203
GAAGGGGA	-0.119
ACATGGGA	0.0443
GGCTTGTA	-0.157
GTAATCAC	0.0661
AGCGCACA	-0.12
CACGCGTG	0.145
TACCCAGA	-0.252
CCGATCAG	0.203
CGTAGTTA	0.144
ATCGGGAA	0.339
CCCCGTTC	0.127
AACCGTAC	-0.0371
CACCGAAC	0.194
ACGTTAAT	0.0964
GATAAGCC	0.251
CCGCTCCA	0.0885
ACCCACCG	0.204
TGGCGTAA	-0.27
CCTCAAGG	-0.168

Sequence	PBM E-score
CAAGGCAG	-0.125
AGGCGTGA	-0.294
ATGCAGGC	-0.0748
CGATCCAC	0.0407
AAAGAGGC	-0.139
AAGGGAAT	-0.161
ACTGACAC	-0.108
ATTCCACC	0.253
GAGCCGAA	0.252
ATCGAAGA	0.115
GCCCCCAC	-0.0961
CTCCTCTC	-0.266
TACAGCCA	-0.158
TTCCACAA	0.0168
CGTAATAA	0.0082
ACGAGGAC	0.109
CGCACTAA	0.0582
CGTATCGC	0.208
GCCTTACA	-0.164
CGGATCAC	0.313
AGACAGCC	-0.0647
CCCTTTAA	-0.0773
TATACGGA	0.293
AAGTTCTC	0.0378
AGTAAGCG	0.0229

Sequence	PBM E-score
TATGCTAA	-0.132
CCACCGTC	-0.0163
CACGCCTG	-0.151
AAGTACCG	0.272
CTGAACGA	-0.278
ATGCCGTA	-0.0192
CGCATTGC	-0.0689
AACCGATC	0.156
GTCACATA	-0.209
CATCTCAC	-0.194
CTCTCTCA	-0.0913
CACACACC	0.0188
CTCCGGCC	0.358
AAGGATTG	-0.0802
ACATCGTG	-0.138
AGCACCAA	-0.114
CCATCCGC	0.163
AAGTTTGT	-0.12
ACATTTAG	-0.3
TCGATCGA	-0.0911
AATCCTGG	-0.0356
GCTCGCGA	0.0705
GATAGGTA	-0.0419
CGCCGTGC	0.113
CATGCCAG	-0.262

Sequence	PBM E-score
GTTCTCTA	-0.157
CGCTTAGA	-0.00319
GAAGGTGC	-0.0411
AAACCCTT	-0.0315
GATATCTA	-0.0499
CATCGCCA	0.116
ACGATGTC	-0.0765
AGCGTTAT	-0.0637
CCAAGATA	-0.0939
AACTGGCC	-0.0206
AGCTACAC	-0.234
CGGCTGAC	0.192
CTTCTCGC	0.1
CGGAGCCG	0.342
CGGTTGCA	0.00987
ACGAATCG	0.0848
GATACAGA	-0.131
AGCGAACG	-0.0429
ATTTCGCC	0.171
CGTTTCTA	-0.19
ATCATGAG	-0.175
GATACCTA	0.0375
CCCACGAA	-0.159
CTTAGGAC	-0.283
TACTAGCA	-0.0779

Sequence	PBM E-score
AGTGTTTG	-0.191
TCCAGTAA	-0.149
CAGAAGGG	-0.224
ATCCGCCC	0.243
GACACACA	-0.103
ACGCCACG	-0.0591
CCGCCAGA	0.0383
ACGGTCAC	-0.0165
AACACCTA	-0.29
CACGCAAC	0.0291
CCCATGCC	0.0775
CAGCAGCC	-0.15
CGTACCAC	-0.0759
GCTACCCC	-0.0578
AGTGACCA	-0.103
GGCGCGAA	0.217
GTGAACAC	-0.0677
ATATATTA	0.0579
TCTTAGCA	-0.206
